{
  "source": "patent US4263427A",
  "about": "“Monensin urethane derivatives” (priority 1979, dated 1981)",
  "test_system": "rumen fluid",
  "data": [
    {"molecule": "CC[C@@H](C(=O)O)[C@@H]1O[C@@H]([C@@H](C)[C@H](O)[C@H](C)C(=O)[C@H](CC)[C@H]2O[C@]3(C=C[C@@H](O)[C@]4(CC[C@@](C)([C@H]5CC[C@](O)(CC)[C@H](C)O5)O4)O3)[C@H](C)C[C@@H]2C)[C@@H](C)C[C@@H]1C", "note": "[Narasin, reference compound]", "values": [
      {"measurement": "Relative levels of propionate (C3) to acetate + butyrate (C2 + C4)", "value": 167, "unit": "%"}
    ]}
  ]
}
